This is an account of results in PubChem BioAssay AID485344 (National Center for Advancing Translational Sciences (NCATS), 2010).

Screen size: about 340,000 compounds; about 6,900 (2%) were called active. No stated cut-off is given here; in the data, active means inhibition above about 30%; inactive means below that, where a call was filed. The entries are a selection whose mix differs from that of the whole data set. Where no call is shown, the source filed none. The source holds several records for some structures; these can differ, active in one and inactive in another.

The experiment concerns the target D(2) dopamine receptor (Homo sapiens) (UniProt P14416). Briefly: HTS Assay for Allosteric Antagonists of the Human D2 Dopamine Receptor: Primary Screen for Antagonists. Further: 0% is about no effect. The settings on record: HEK293 TREx D2 cells, calcium flux, dopamine EC80; at 10 µM; stronger effect = higher value. The essentials: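 Overnight-induced (tetracycline, 30 C) HEK293 T-REx cells carrying force-coupled D2 receive a no-wash calcium dye, then compound, then EC80 dopamine at 180 s; signals are read kinetically throughout.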
Sequence of UniProt P14416 (P14416 whole entry, looked up): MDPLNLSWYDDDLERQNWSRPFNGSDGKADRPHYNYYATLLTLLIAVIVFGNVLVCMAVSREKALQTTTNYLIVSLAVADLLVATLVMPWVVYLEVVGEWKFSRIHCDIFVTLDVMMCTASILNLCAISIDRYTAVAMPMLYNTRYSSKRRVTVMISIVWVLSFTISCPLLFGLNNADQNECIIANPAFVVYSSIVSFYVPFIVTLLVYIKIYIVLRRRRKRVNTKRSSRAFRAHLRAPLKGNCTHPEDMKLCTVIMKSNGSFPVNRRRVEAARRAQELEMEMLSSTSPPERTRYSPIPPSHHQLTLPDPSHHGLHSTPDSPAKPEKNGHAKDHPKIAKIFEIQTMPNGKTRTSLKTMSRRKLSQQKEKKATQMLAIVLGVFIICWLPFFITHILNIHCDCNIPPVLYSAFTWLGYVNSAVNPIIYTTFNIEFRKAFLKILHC
As usually defined, the inhibition is the drop in the measured response relative to a control, in per cent. With `Cc1cc2n(n1)CCC(=O)N2Cc1ccc(C(=O)Nc2ccc(F)cc2F)cc1`, the inhibition is -20.6%.

As to `COc1ccc(-c2nc3scc(CCNC(=O)c4cccc(Br)c4)n3n2)cc1`, the inhibition was -4.07%.

For the molecule `COc1ccc(NC(=O)c2sc3nc4c(c(-c5ccc(OC)cc5)c3c2N)C(=O)CC(C)(C)C4)cc1`, the inhibition was -4.01%.

In the case of `Cc1cc(-c2ccc(S(=O)(=O)N3CCN(c4ccc(Cl)cc4)CC3)s2)on1`, the inhibition is -2.82%.

As for `CCOC(=O)c1ccc(N2C(=O)c3[nH]nc(-c4ccc(OCC)cc4)c3C2c2cccs2)cc1` (centres undefined), the inhibition is -2.75%.

In the case of `CN(CC(O)CN1CCOCC1)S(=O)(=O)O` (centres undefined), the inhibition was active: 34.1%.

As to `O=C(Nc1cc(-c2nc3cc(Cl)ccc3o2)ccc1Cl)c1cc([N+](=O)[O-])ccc1N1CCOCC1`, the inhibition amounted to 11.1%.

For `COc1ccc2[nH]cc(CCNC(=O)c3cnn(-c4ccc(C)cc4)c3C3CCN(C(=O)OC(C)(C)C)CC3)c2c1`, the inhibition is 12.3%.

Turning to `COC(=O)c1cc2oc3ccccc3c2n1Cc1nc(-c2cccc(C)c2)oc1C`, the inhibition is -0.694%.

Regarding `COCCN1C(=O)c2oc3ccc(C)cc3c(=O)c2C12C(=O)N(C)c1ccccc12` (centres undefined), the inhibition was 1.34%.

As for `CC(=O)Nc1ccc(NC(=O)C2(c3cccs3)CCOCC2)cc1`, the inhibition worked out at 13.9%.

For `CC(C)N(Cc1ccccc1)C(=O)C1CCCN(c2ncnc3onc(-c4ccc(F)cc4)c23)C1` (centres undefined), the inhibition is -2.89%.

Regarding `COc1cc(CCC(=O)Nc2cccc(S(=O)(=O)N(C)C)c2)cc(OC)c1OC`, the inhibition is active: 39.3%.

With `COc1ccccc1CNC(=O)c1cnc(SC)nc1C`, the inhibition turned out to be 23.7%.

For the molecule `CCOC(=O)c1c(NC(=O)COc2ccc(C)cc2C(C)(C)C)sc2c1CCC(C)C2` (centres undefined), the inhibition was found to be 3.43%.

In the case of `COc1ccc(OC)c(CCNC(=O)c2cnn(-c3ccc(C)cc3C)c2C2CCN(C(=O)OC(C)(C)C)CC2)c1`, the inhibition was -0.762%.

For `Cc1c(C(=O)N2CCC(C)CC2)c(S(=O)(=O)Nc2cccc(C(F)(F)F)c2)c(C)n1C`, the inhibition is -5.12%.

Take `Cc1ccc(Cn2c(CNC(=O)Cc3cccc(C)c3)nc3cccnc32)cc1`: the inhibition was -6.11%.

`CCCCC(=O)N1CCN(c2ccc(OC)cc2[N+](=O)[O-])CC1`: the inhibition was active: 30%.

As to `CN1CCN(S(=O)(=O)c2cccc(C(=O)Oc3ccc(C(C)(C)C)cc3)c2)CC1`, the inhibition is active: 34.3%.

For `COC(=O)c1ccccc1NC(=O)c1cc(CN2CCCC2)on1`, the inhibition is -0.116%.

`Cc1ccc2c(c1)-c1onc(C(=O)N3CCN(c4cc(Cl)ccc4C)CC3)c1CO2`: the inhibition is -24%.

`CC1Cc2ccccc2N1S(=O)(=O)c1nnc(NC(=O)c2cccc(F)c2)s1` (centres undefined): the inhibition is -14.9%.

Regarding `CCC(=O)N1CCc2cc(CNC(=O)Cc3ccc(F)cc3)ccc21`, the inhibition was -1.03%.

For the molecule `CCn1nnc2cc(C(=O)Nc3ccc(C)c(Cl)c3)ccc21`, the inhibition was -0.454%.

With `CCn1nc(-c2ccccc2)c(-c2ccccc2)c(C(=O)Nc2nc(C)c(C(C)=O)s2)c1=O`, the inhibition was -6.04%.

Turning to `CCC(=O)N1CCc2cc(CNC(=O)c3ccc(OC)cc3)ccc21`, the inhibition stood at 2.36%.

As for `CCCCn1cc(S(=O)(=O)c2ccc(C)c(C)c2)c(=O)c2cc(F)c(N(CC)CC)cc21`, the inhibition was found to be 9.41%.

Take `CCOC(=O)CNc1ccc2c(c1)OCO2`: the inhibition is active: 39.9%.

As to `COc1ccc(-c2nc(CN3CCC(C(=O)NCCc4ccccc4)CC3)c(C)o2)cc1OC`, the inhibition amounted to 5.08%.

With `Cc1ccc(NC(=O)CSc2nc(=O)n(Cc3ccco3)c3c2CCC3)cc1F`, the inhibition was 24.2%.

On to `Cn1c(-c2ccc(Br)cc2)cnc1NCc1cccnc1`, for which the inhibition was active: 42.9%.

With `CCn1c(=O)cc(SCC(=O)NCCCN2CCN(c3ccc(F)cc3)CC2)c2ccccc21`, the inhibition is active: 65.8%.

For the molecule `O=C(Nc1sc2c(c1C(=O)Nc1cccc(Cl)c1)CCCC2)c1cccs1`, the inhibition was -12.5%.

Take `Cn1c(=O)c(=O)n(C)c2cc(N3CCCC3)c(NC(=O)c3ccccc3F)cc21`: the inhibition is -13.7%.

In the case of `O=C1C2CCCN2C(=O)N1CCN1CCN(c2ccccc2)CC1` (centres undefined), the inhibition is active: 70.8%.

On to `CCOc1ccc(S(=O)(=O)N(CC(=O)NCCSc2ccc(C)cc2)c2ccccc2)cc1`, for which the inhibition is 4.67%.

For `Cc1ccc(NC(=O)N2CCN(c3ccc(Cl)c(Cl)c3)CC2)cc1`, the inhibition is 4.68%.

Turning to `CCc1nnc(SCC(=O)Nc2cc(OC)ccc2OC)nc1CC`, the inhibition worked out at 4%.

In the case of `CCN(Cc1ccccc1)C(=O)c1cc2c(=O)[nH]c3ccc(C)cc3c2s1`, the inhibition was 11.4%.

In the case of `Cc1cccc(Cn2c(COc3ccc(Cl)cc3)nc3ccccc32)c1`, the inhibition is -2.41%.

Take `Cc1ccc(CCNC(=O)c2cc3n(n2)CCCN(Cc2ccc(C)cc2)C3=O)cc1`: the inhibition amounted to 2.09%.

Regarding `Cc1nc2nc(NC(=O)CC(C)C)[nH]n2c(=O)c1Cc1ccccc1`, the inhibition is -4.07%.

Consider `CCc1ccccc1NC(=O)Cc1ccc(NC(=O)N2CCCCc3ccccc32)cc1`, for which the inhibition is 0.307%.

As to `c1ccc2c(c1)CCc1c-2nc2ccccc2c1N1CCOCC1`, the inhibition was active: 36.6%.

For the molecule `CCS(=O)(=O)c1ncc(Cl)c(C(=O)Nc2c(C(=O)Nc3cccc(C)c3)oc3ccccc23)n1`, the inhibition stood at 12.6%.

For the molecule `Cc1ccc(-c2c(C(=O)N3CCN(c4cc(Cl)ccc4C)CC3)oc(=O)c3ccccc23)cc1`, the inhibition was determined as 3.41%.

Take `COc1ccc(C)cc1NC(=O)c1cc2c(=O)n(Cc3cccnc3)ccc2nc1C`: the inhibition came to 4.95%.

With `CCc1cccc(NC(=O)Nc2cccs2)c1`, the inhibition was active: 32.4%.

For `COc1ccc2c(c1)c1c(c(=O)n(-c3ccccc3C)c(=O)n1C)n2C`, the inhibition worked out at 4.44%.

Turning to `CCN(CC)S(=O)(=O)c1cccc(C(=O)Nc2sc3c(c2C#N)CCC(C)C3)c1` (centres undefined), the inhibition is -6.61%.

On to `Cc1cc(C)c(S(=O)(=O)N2CCC(N3CCN(Cc4ccccc4)C(=O)C3=O)CC2)c(C)c1`, for which the inhibition was -2.01%.

Turning to `CCN(CC)CCNC(=O)c1cn(CCOC)c(=O)c2c1c1ccccc1n2C`, the inhibition came out at 4.24%.

With `COc1ccc(CNCc2c(C(=O)O)c(C)n(Cc3ccccc3C)c2C)c(OC)c1`, the inhibition was 8.19%.

Regarding `COc1ccc(-n2ncc(C(=O)N3CCN(c4cc(C)ccc4C)CC3)c2C2CCN(C(=O)OC(C)(C)C)CC2)cc1`, the inhibition was -13.6%.

On to `CCCCNC(=O)C1CCN(c2nc3ccccc3nc2C(F)(F)F)CC1`, for which the inhibition is 6.66%.

In the case of `Cc1ccc(Cl)cc1N1CCN(c2ncnc3c2nc2n3CCCCC2)CC1`, the inhibition was -4.92%.

Regarding `COc1ccc(Nc2cc(C)c3cc(NC(=O)Cc4ccc(Cl)cc4)ccc3n2)cc1`, the inhibition was determined as 10.6%.

Regarding `Cc1nnc(NC(=O)CSc2nccn2Cc2ccc(Cl)cc2)s1`, the inhibition stood at 14.8%.

With `O=C(CSc1cn(CCNC(=O)c2c(F)cccc2F)c2ccccc12)Nc1ccc(F)cc1`, the inhibition was -0.745%.

Take `CC1CCCN(Cc2nc3c(c(=O)n(C)c(=O)n3C)n2Cc2ccc(Cl)cc2)C1` (centres undefined): the inhibition was -15.8%.

For `O=C(Nc1cc(Cl)ccc1Cl)c1cc2nc(-c3ccc4c(c3)OCO4)cc(C(F)(F)F)n2n1`, the inhibition is -1.06%.

As for `Cn1nc(C(=O)NCc2ccccc2Cl)c2c1-c1ccccc1S(=O)(=O)C2`, the inhibition worked out at 5.5%.

With `CSc1ccc(CNC(=O)C2CCN(c3nc4ccccc4nc3C(F)(F)F)CC2)cc1`, the inhibition came out at 9.46%.

Take `Cc1cc(C)cc(NC(=O)CSc2oc(-c3ccco3)nc2S(=O)(=O)c2ccc(Cl)cc2)c1`: the inhibition came out at 19.4%.

`CCc1ccc(C(=O)N2CCC(c3nc(-c4ccc(S(=O)(=O)N5CCCC5)cc4)no3)CC2)cc1`: the inhibition was 6.39%.

In the case of `O=C(O)c1ccc(CNCc2ccccc2Cl)s1`, the inhibition was -2.84%.

`O=C1C(Cl)=C(NCCN2CCOCC2)C(=O)c2ccccc21`: the inhibition was active: 36.2%.

Take `Cc1ccc(CNC(=O)CCCCCn2c(=O)c3sccc3n(CC(=O)Nc3c(C)cc(C)cc3C)c2=O)cc1`: the inhibition was -13.4%.

Turning to `CCCOc1ccc(CNC(=O)CCCn2nc(C)c3sc4ccccc4c3c2=O)cc1`, the inhibition is -13.3%.

For `CCCSc1ncc(Cl)c(C(=O)Nc2c(C(=O)Nc3ccc(OC)cc3)oc3ccccc23)n1`, the inhibition was -15.8%.

As for `COc1cc(Cl)c(C)cc1NC(=O)Cn1ncc2c1-c1cc(C)ccc1OC2`, the inhibition was -12.5%.

Regarding `Cc1cccc(CNC(=O)c2ccc3oc(=O)n(Cc4ccccc4)c3c2)c1`, the inhibition is 3.87%.

For `O=S(=O)(c1ccc(Br)cc1)c1nnn2c1nc(NCc1ccc3c(c1)OCO3)c1sccc12`, the inhibition came out at 12.7%.

For `COc1ccc(C(=O)Nc2nnc(SCc3cc(=O)n4cccc(C)c4n3)s2)cc1`, the inhibition was -5.62%.

`Cc1ccc(CNC(=O)C2CCN(Cc3nc(-c4cccc(Br)c4)oc3C)CC2)cc1`: the inhibition amounted to 10.5%.

For `CC(=O)c1cccc(NC(=O)C2CCN(S(=O)(=O)c3ccc4[nH]c(=O)ccc4c3)CC2)c1`, the inhibition was -22.2%.

In the case of `CCOc1ccc(-n2c(=O)c3c4c(sc3n(CC(=O)NC(C)CC)c2=O)CCCC4)cc1` (centres undefined), the inhibition is -9.53%.

For `Cc1cccc(-n2c(=O)c3ccccc3n(Cc3ccccc3)c2=O)c1`, the inhibition is -8.87%.

As for `Cc1ccc(-n2nc3ccc(NC(=O)COc4ccccc4)cc3n2)cc1Cl`, the inhibition was -5.09%.

In the case of `CCc1cc2c(cc(C(=O)OC)n2Cc2nc(-c3ccc(C)cc3)oc2C)s1`, the inhibition turned out to be 4.33%.

Take `O=C(CSc1nc2c([nH]c3ccccc32)c(=O)n1-c1cccc(C(F)(F)F)c1)N1CCc2ccccc21`: the inhibition was determined as 16.3%.

`CCOc1ccc(N(CC)C(=O)c2nn(-c3ccc(OC)cc3)c(=O)c3c2c2ccccc2n3C)cc1`: the inhibition was -10.3%.

Take `COc1ccc(OC)c(NC(=O)c2cc(C3CC3)nc3c2c(C)nn3-c2ccc(C)cc2)c1`: the inhibition is 0.559%.

As for `COc1ccc(-c2c(C)nn3c(C(F)(F)F)cc(-c4ccccc4)nc23)cc1`, the inhibition worked out at 6.43%.

As to `O=C(NCc1ccco1)c1ccc2c(c1)N(Cc1c(F)cccc1Cl)C(=O)c1ccccc1S2`, the inhibition was -13.4%.

With `O=C(Cn1cc(SCc2ccccc2F)c2ccccc21)N1CCCCC1`, the inhibition was determined as 5.21%.

On to `Cc1cc(C)cc(NC(=O)Cc2c(C(=O)O)c(C)cn2C)c1`, for which the inhibition stood at 8.04%.

On to `COc1ccc(C(=O)NCc2ccc3c(c2)CCN3C(=O)c2ccc(C)cc2)cc1`, for which the inhibition was -1.51%.

On to `COc1ccc(Cn2ccc3nc(C)c(C(=O)N4CCN(c5ccc(OC)cc5)CC4)cc3c2=O)cc1`, for which the inhibition is 3.22%.

`Cc1ccc(S(=O)(=O)N(C)Cc2nc(-c3ccccc3)oc2C)cc1`: the inhibition is 18.1%.

In the case of `CCc1nc2nc(C)c(NS(=O)(=O)c3ccc(C)cc3)c(=O)n2[nH]1`, the inhibition was -0.0735%.

As for `CC1CCn2c(nc3cc(C(=O)NCc4ccc(OC(C)C)cc4)ccc32)C1` (centres undefined), the inhibition is -6.34%.

For the molecule `COc1cccc(N2CCN(C(=O)CCCCCn3c(=O)[nH]c4ccccc4c3=O)CC2)c1`, the inhibition was 21.7%.
